From the supplement of paper PMC3724861
This is one part of the list.

Test system: T1, Caupolican (Caup) homeodomain DNA-binding domain
T1 sequence: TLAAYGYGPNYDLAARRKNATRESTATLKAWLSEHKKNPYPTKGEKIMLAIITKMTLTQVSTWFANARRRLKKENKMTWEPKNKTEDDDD
Test: PBM E-score (8-mer, recovered from the published 9-mer minima) (E-score (dimensionless, -0.5 to 0.5)); Drosophila protein; higher = stronger relative binding preference, active = 0.31 or more
Summary of the method: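 An enrichment score, with higher meaning stronger, expresses relative binding preference for each short DNA word. The protein used was Caup's homeodomain DNA-binding domain (residues 214-303), produced by in vitro transcription and translation and tested at 100 nM on custom-designed protein binding microarrays. The 8-mer values were recovered from published 9-mer scores, each equal to the lower of its two constituent 8-mer scores.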

PBM E-score, ≥ -0.0267:
ATGGCGAA

PBM E-score, ≥ 0.149:
ATGTGGAA

PBM E-score, ≥ 0.00954:
ACGCGGAT

PBM E-score, ≥ 0.0658:
TCCATGAA

PBM E-score, ≥ 0.133:
CGATATCG

PBM E-score, ≥ 0.108:
GTAAGGCA

PBM E-score, inactive:
TATTCACA 0.123
CGGGAATC -0.164
GCTGGGCC -0.344
CTCGTACA 0.238
TAGTTTGA 0.0652
CCTCTTAG -0.0358
CTGGTTAA 0.12
GGAATAAC 0.0351
CCCTCCGC -0.201
GGCATCGA -0.119
CGGCCCAC -0.234
AGACGCCG -0.178
GAAGCCGA -0.0895
TAGGGATA -0.00992
CAACTGAG 0.0727
CGGTCAAC -0.0213
GACAACCA 0.297
TAGCGCCA -0.149
ACTTCAGA 0.00584
ACCTTTAG -0.0647
ACTAAGGC -0.121
CGTCACTA 0.0243
AGCGGCAG -0.138
CCAATCAG -0.0909
AAAGGTCT -0.0899
AGAGTGTA 0.0977
ATAGAACA 0.282
CCTGTTAA 0.188
ATCACGCA 0.069
AAAGCGCT -0.0583
TAGAGGAA -0.0403
ATTTCCCG 0.0165
CGTCGGGA 0.0166
CTGGTCGC -0.106
GTAGCGGA -0.0315
GACGCTGA -0.126
ACGGCCAT -0.18
GCCCCCGC -0.272
CGAGCAAC -0.00148
GGTTACCA 0.041
AGCAAGCA -0.0359
AACTGTGT 0.22
GCTTGACA 0.139
CTGTTAAG 0.127
CACCGCTA -0.113
ATTGTTAA 0.21
CGGCCAAA -0.129
TCACGTAA 0.0905
GTCGATTA 0.107
CACGGCTG -0.0979
AGGTCCCG -0.181
GTCCATCA -0.0212
GATCCCGA -0.159
ATATGGAG 0.027
CCCCCGGC -0.33
AGCTGGGG -0.232
CTGGGAGA -0.143
CAGCCCCC -0.328
ACCGTACC -0.0578
GGGATCGA 0.011
CGCACCAA -0.12
ACGAATTC 0.0393
GTACCGAA 0.0678
CGTCCTCA -0.105
AAAAACAA 0.248
GGCTGAGA -0.107
ATGCAGAG -0.107
CCATGGTC -0.0618
ACCCCCTC -0.287
GACAACTC 0.191
AATCATTA 0.147
CCTCAGTA -0.12
GAGGATAC 0.0175
CCAGTTCA -0.06
TACAGAAA 0.17
CGTAGTCA 0.0132
CGACCTCC -0.138
ACTTGAAT 0.143
ACCAGCCG -0.125
CAGGTGGC -0.104
AGGCTTGA -0.122
ATCTCAAG 0.0464
CGACGTGA 0.0677
AGCTCAAA -0.0752
CGGTCAAA 0.0311
GGAGGAAC -0.0554
ATAAGGCG -0.112
CGGCACCC -0.203
CCGGTCAA -0.0503
CATCGCGA 0.0249
CAAGACTC 0.0253
AACAACGG 0.203
CCTACTTC -0.0288
AAAGGGGT -0.119
CTGCATCA 0.031
ATCAGCGC -0.0347
GCCTCCGA -0.131
AGACACTG 0.119
CCGCTCAA -0.19
CGTAGTAC 0.124
CCTGTGTC 0.125
AGGGGAAG -0.073
AGTCAATG 0.0578
CTAAATAG 0.0426
GATCGGGA -0.122
ACGGTCGG -0.1
CTAGAAAC -0.0157
GGTGCCGA -0.111
AAGAAAGA 0.0126
AATGCCCT -0.111
CCATGTAG 0.268
ATCTGACA 0.269
AGCTCTCG -0.217
CCCTCAAC -0.204
ACAGAAAC 0.172
CGTATCTA -0.0339
CAGGTAAC 0.125
AGGAGTGC -0.0928
GAAACCTC -0.051
AGATGAGG -0.179
TCACGACA 0.218
ACGACTCG -0.0644
AGTAGGCA 0.004
AGTGACAA 0.255
CCTCTCCG -0.267
CCCAAAGC -0.199
AGTAACCC -0.00218
AACTATTG 0.163
AAGCCATT 0.0303
TTACGAAA 0.0668
GATACTAC 0.175
ATAGCTTC -0.0833
CGGTAATA 0.102

PBM E-score, ≥ 0.0769:
TGATCGCA

PBM E-score, active:
AATACACA 0.311
ATGTACTA 0.398
CCGTGTTA 0.321
ATATACAC 0.348
